Test results taken from the supplement of paper PMC6828730.
Counter-ions that a name gives are not always drawn. This is one part of the list. Single values are uncertain, as repeats are few or missing.

Test system: hiPSC-derived cardiomyocytes
Assay: time to death of most cells in well after compound addition (days); higher = less cardiotoxic
Conditions: screen: 1; 10 µM

Q: Which “time to death of most cells in well” value does the source give for `Cc1ccc2nc(NCCN)c3ncc(C)n3c2c1` here?
A: The value was 2.

Q: With `CCCCCCCCc1ccc(CCC(N)(CO)CO)cc1` [Fingolimod (FTY720) HCl] as the compound, how does the “time to death of most cells in well” value read?
A: The value was 2.

Q: Which “time to death of most cells in well” value does the source give for `Oc1ccc2ccccc2c1SSc1c(O)ccc2ccccc12` here?
A: Its value is 2.

Q: `O=C(O)CCC(=O)Nc1ccc(Br)cn1` [Bikinin] was tested. Which “time to death of most cells in well” value did it give?
A: The value was over 7.

Q: With `C[C@@H]1COCCN1c1cc(C2([S@](C)(=N)=O)CC2)nc(-c2cc[nH]c3nccc2-3)n1` as the compound, how does the “time to death of most cells in well” value read?
A: Its value is over 7.

Q: How did the “time to death of most cells in well” value turn out when `CN1CC[C@H](c2c(O)cc(O)c3c(=O)cc(-c4ccccc4Cl)oc23)[C@H](O)C1` [Flavopiridol HCl] was run?
A: Its value is 5.5.

Q: With `Cc1cc([C@@H](C)Nc2ccccc2C(=O)O)c2nc(N3CCOCC3)cc(=O)n2c1` as the compound, how does the “time to death of most cells in well” value read?
A: The value was over 7.

Q: How did the “time to death of most cells in well” value turn out when `O=C(c1cccc(Cl)c1F)N1CCN(Cc2cccc(Nc3nccs3)n2)CC1` was run?
A: The value was 5.5.

Q: How did the “time to death of most cells in well” value turn out when `CCOc1cc(C(=O)N2CCC(N3CCN(C)CC3)CC2)ccc1Nc1ncc2c(n1)N(C1CCCC1)c1ccccc1C(=O)N2C` was run?
A: The value was 4.

Q: `CCc1ccc(/C=C2/SC(=S)NC2=O)cc1` was tested. Which “time to death of most cells in well” value did it give?
A: Its value is over 7.

Q: Which “time to death of most cells in well” value does the source give for `COc1cc2c(Nc3ccc(NC(=O)c4ccccc4)cc3)ncnc2cc1OCCCN1CCOCC1` here?
A: The value was over 7.

Q: For `CC(C)(C)c1cnc(CSc2cnc(NC(=O)C3CCNCC3)s2)o1`, which “time to death of most cells in well” value is on record?
A: The value was 2.

Q: Which “time to death of most cells in well” value does the source give for `CN1CCCN(C(=O)c2cccc(-c3ccc(/C=C4/C(=O)Nc5ccc(Cl)cc54)o3)c2)CC1` here?
A: Its value is 0.5.

Q: With `Cc1ccc(-n2nc(C(C)(C)C)cc2NC(=O)Nc2ccc(OCCN3CCOCC3)c3ccccc23)cc1` [Doramapimod (BIRB 796)] as the compound, how does the “time to death of most cells in well” value read?
A: Its value is over 7.

Q: `COc1cc(Nc2nc3ccccc3nc2NS(=O)(=O)c2ccc(NC(=O)c3ccc(C)c(OC)c3)cc2)cc(OC)c1` was tested. Which “time to death of most cells in well” value did it give?
A: Its value is over 7.

Q: For `Cc1cc(NC(=O)c2cccc(NC(=O)/C=C/CN(C)C)c2)ccc1Nc1nccc(-c2cccnc2)n1`, which “time to death of most cells in well” value is on record?
A: The value was 5.5.

Q: How did the “time to death of most cells in well” value turn out when `O=C(NCCO)c1cccc(-c2cc(Nc3ccc(OC(F)(F)F)cc3)ncn2)c1` was run?
A: Its value is over 7.

Q: How did the “time to death of most cells in well” value turn out when `O=C(NCCCNc1nc(Nc2cccc(NC(=O)N3CCCC3)c2)ncc1I)c1cccs1` was run?
A: The value was over 7.

Q: How did the “time to death of most cells in well” value turn out when `CN(C)S(=O)(=O)c1ccc2c(c1)/C(=C/c1cc3c([nH]1)CCCC3)C(=O)N2` was run?
A: The value was over 7.

Q: Which “time to death of most cells in well” value does the source give for `CCN1CCN(Cc2ccc(Nc3ncc(F)c(-c4cc(F)c5nc(C)n(C(C)C)c5c4)n3)nc2)CC1` here?
A: The value was 3.

Q: How did the “time to death of most cells in well” value turn out when `O=C(NCc1ccccc1)c1csc(Nc2ccncn2)n1` [Thiazovivin] was run?
A: The value was 5.

Q: With `O=C(Nc1cccnc1)c1cc(-c2ccnc(F)c2)ccc1OCc1ccccc1` as the compound, how does the “time to death of most cells in well” value read?
A: Its value is over 7.

Q: Which “time to death of most cells in well” value does the source give for `Cn1cnc2c(F)c(Nc3ccc(Br)cc3Cl)c(C(=O)NOCCO)cc21` [Selumetinib (AZD6244)] here?
A: Its value is over 7.

Q: How did the “time to death of most cells in well” value turn out when `O=c1[nH]c2ccc(Cl)cc2c(N[C@@H]2CN3CCC2CC3)c1-c1nc2ccccc2[nH]1` was run?
A: Its value is 6.

Q: How did the “time to death of most cells in well” value turn out when `N#CC(=C(/N)Sc1ccccc1N)/C(C#N)=C(\N)Sc1ccccc1N` was run?
A: The value was over 7.

Q: `O=C(O)[C@]1(Cc2cccc(Nc3nccs3)n2)CC[C@@H](Oc2cccc(Cl)c2F)CC1` was tested. Which “time to death of most cells in well” value did it give?
A: The value was over 7.

Q: `COc1cc2ncnc(Oc3cccc(NC(=O)Nc4cc(C(C)(C)C(F)(F)F)on4)c3)c2cc1OC` was tested. Which “time to death of most cells in well” value did it give?
A: The value was 6.

Q: How did the “time to death of most cells in well” value turn out when `O=c1ncn2nc(Sc3ccc(F)cc3F)ccc2c1-c1c(Cl)cccc1Cl` was run?
A: Its value is 2.5.

Q: For `Cc1ccccc1-n1c(Cn2nc(-c3cccc(O)c3)c3c(N)ncnc32)nc2cccc(C)c2c1=O`, which “time to death of most cells in well” value is on record?
A: The value was over 7.

Q: For `CN1CCN(c2cccc(Nc3nc4c(-c5ccc(S(C)(=O)=O)cc5)cccn4n3)c2)CC1`, which “time to death of most cells in well” value is on record?
A: Its value is over 7.

Q: For `COc1cc(OC)c(/C=C/S(=O)(=O)Cc2ccc(OC)c(NCC(=O)O)c2)c(OC)c1`, which “time to death of most cells in well” value is on record?
A: Its value is 3.

Q: `Nc1ncnc2c1c(-c1cccc(OCc3ccccc3)c1)cn2C1CC(CN2CCC2)C1` (stereo not drawn) was tested. Which “time to death of most cells in well” value did it give?
A: Its value is 5.

Q: `CCCCOc1c(C(=O)c2c(F)cc(C)cc2F)c[nH]c2nncc1-2` was tested. Which “time to death of most cells in well” value did it give?
A: Its value is 4.

Q: `NC(=O)Nc1sc(-c2ccc(F)cc2)cc1C(N)=O` was tested. Which “time to death of most cells in well” value did it give?
A: The value was 6.

Q: How did the “time to death of most cells in well” value turn out when `CNC(=O)c1c(F)cccc1Nc1nc(Nc2cc3c(cc2OC)CCN3C(=O)CN(C)C)nc2[nH]ccc12` was run?
A: Its value is 3.5.

Q: `Cc1c(NC(=O)c2ccc(C(C)(C)C)cc2)cccc1-c1cn(C)c(=O)c(Nc2ccc(C(=O)N3CCOCC3)cc2)n1` was tested. Which “time to death of most cells in well” value did it give?
A: The value was 2.

Q: How did the “time to death of most cells in well” value turn out when `Cc1c(F)cc(C(=O)NC2CC2)cc1-c1ccc(C(=O)NCC(C)(C)C)cn1` was run?
A: Its value is over 7.

Q: Which “time to death of most cells in well” value does the source give for `COc1ccc2c(c1)/C(=C/c1cnc[nH]1)C(=O)N2` here?
A: The value was over 7.
